Laboratory results taken from patent publication US6153604A, “Therapeutic substituted guanidines” (Cambridge NeuroScience, Inc., priority 1995, dated 2000).
Where a name gives a salt, the structure may show the parent alone.

Biological target: PCP receptor
Test: PCP receptor radioligand binding assay ([3H]MK-801, rat brain membranes)
Details: read-out: [3H-MK801] Ki (head printed "Kj"); derived from the IC50 values as described by Cheng et al.

`CCc1cccc(NC(=N)Nc2cccc(Cl)c2)c1` [Compd. No. 3 (Table I)] and `CCc1cccc(NC(=N)Nc2cccc(CC)c2)c1` [Compd. No. 9 (Table I)] are within 1.5-fold of each other in Ki: 112 nM for the first, 129 nM for the second.

Compared with `CCc1cccc(NC(=N)Nc2cc(C(F)(F)F)ccc2Br)c1` [Compd. No. 4 (Table I), N-(3-Ethylphenyl)-N'-(2-bromo-5-trifluoromethylphenyl)guanidine hydrochloride], `CCc1cccc(NC(=N)Nc2cc(C(F)(F)F)ccc2Cl)c1` [Compd. No. 6 (Table I), N-(3-Ethylphenyl)-N'-(2-chloro-5-trifluoromethylphenyl)guanidine hydrochloride] is 1.5-fold lower in Ki: 66.8 nM for the first, 43.9 nM for the second. The second binds more tightly here.

Compared with `CCc1cccc(NC(=N)Nc2cc(C)ccc2Cl)c1` [Compd. No. 7 (Table I), N-(3-Ethylphenyl)-N'-(2-chloro-5-methylphenyl)guanidine hydrochloride], `CCc1cccc(NC(=N)Nc2cc(CC)ccc2Cl)c1` [Compd. No. 8 (Table I), N-(3-Ethylphenyl)-N'-(2-chloro-5-ethylphenyl)guanidine hydrochloride] is 2.2-fold lower in Ki: 76.9 nM for the first, 34.7 nM for the second.

First: CCc1cccc(N(C)C(=N)Nc2cc(Cl)ccc2Cl)c1 [Compd. No. 10 (Table I), N-(3-ethylphenyl)-N-methyl-N'-(2,5-dichlorophenyl)guanidine hydrochloride]
Second: CCc1cccc(N(C)C(=N)Nc2cc(CC)ccc2Cl)c1 [Compd. No. 17 (Table I), N-(3-Ethylphenyl)-N-methyl-N'-(2-chloro-5-ethylphenyl)guanidine hydrochloride]
The Ki of the first is 1.6-fold higher: 65 nM for the first, 40.7 nM for the second. The second binds more tightly here.

Compared with `CCc1cccc(N(C)C(=N)Nc2cc(Br)ccc2Br)c1` [Compd. No. 11 (Table I), N-(3-ethylphenyl)-N-methyl-N'-(2,5-dibromophenyl)guanidine hydrochloride], `CCc1cccc(N(C)C(=N)Nc2cc(CC)ccc2Br)c1` [Compd. No. 22 (Table I), N-(3-Ethylphenyl)-N-methyl-N'-(2-bromo-5-ethylphenyl)guanidine hydrochloride] is 2.9-fold lower in Ki: 36.6 nM for the first, 12.8 nM for the second.

Going from `CCc1cccc(N(C)C(=N)Nc2cccc(Cl)c2)c1` [Compd. No. 12 (Table I)] to `CCc1cccc(N(C)C(=N)Nc2cccc(Br)c2)c1` [Compd. No. 19 (Table I)], the Ki falls from 497 nM to 80.7 nM (6.2-fold). The second binds more tightly here.

Compared with `CCc1cccc(N(C)C(=N)Nc2cc(C(F)(F)F)ccc2Br)c1` [Compd. No. 13 (Table I), N-(3-Ethylphenyl)-N-methyl-N'-(2-bromo-5-trifluoromethylphenyl)guanidine hydrochloride], `CCc1cccc(N(C)C(=N)Nc2cc(C(F)(F)F)ccc2F)c1` [Compd. No. 14 (Table I), N-(3-Ethylphenyl)-N-methyl-N'-(2-fluoro-5-trifluoromethylphenyl)guanidine hydrochloride] is 2.5-fold higher in Ki: 78.4 nM for the first, 194 nM for the second.

Compared with `CCc1cccc(N(C)C(=N)Nc2cc(C(F)(F)F)ccc2Cl)c1` [Compd. No. 15 (Table I), N-(3-Ethylphenyl)-N-methyl-N'-(2-chloro-5-trifluoromethylphenyl)guanidine hydrochloride], `CCc1cccc(N(C)C(=N)Nc2cc(SC)ccc2Cl)c1` [Compd. No. 24 (Table I), N-13-Ethylphenyl)-N-methyl-N'-(2-chloro-5-methylthiophenyl)guanidine hydrochloride] is 20-fold lower in Ki: 101 nM for the first, 5.1 nM for the second.

Going from `CCc1cccc(N(C)C(=N)Nc2cc(CC)ccc2F)c1` [Compd. No. 20 (Table I), N-(3-Ethylphenyl)-N-methyl-N'-(2-fluoro-5-ethylphenyl)guanidine hydrochloride] to `CCc1cccc(NC(=N)Nc2cc(CC)ccc2F)c1` [Compd. No. 21 (Table I), N-(3-Ethylphenyl)-N'-(2-fluoro-5-ethylphenyl)guanidine hydrochloride], the Ki falls from 98.9 nM to 49.8 nM (2-fold).

Compared with `CCc1cccc(NC(=N)Nc2cc(CC)ccc2Br)c1` [Compd. No. 23 (Table I), N-(3-Ethylphenyl)-N'-(2-bromo-5-ethylphenyl)guanidine hydrochloride], `CCc1cccc(NC(=N)Nc2cc(SC)ccc2Cl)c1` [Compd. No. 25 (Table I), N-(3-Ethylphenyl)-N'-(2-chloro-5-methylthiophenyl)guanidine hydrochloride] is 2.1-fold lower in Ki: 24.9 nM for the first, 11.8 nM for the second. The second binds more tightly here.

First: CCc1cccc(N(C)C(=N)N(C)c2cc(Cl)ccc2Cl)c1 [Compd. No. 26 (Table I), N-(3-Ethylphenyl)-N-methyl-N'-(2,5-dichlorophenyl)-N'-methylguanidine hydrochloride]
Second: CCc1cccc(N(C)C(=N)N(C)c2cc(CC)ccc2Cl)c1 [Compd. No. 28 (Table I), N-(3-Ethylphenyl)-N-methyl-N'-(2-chloro-5-ethylphenyl)-N'-methylguanidine hydrochloride]
The Ki of the first is 1.6-fold lower: 72 nM for the first, 112 nM for the second. The first binds more tightly here.

Compared with `CCc1cccc(N(C)C(=N)N(C)c2cc(Br)ccc2Br)c1` [Compd. No. 27 (Table I), N-(3-Ethylphenyl)-N-methyl-N'-(2,5-dibromophenyl)-N'-methylguanidine hydrochloride], `CCc1cccc(N(C)C(=N)Nc2cc(SC)ccc2Br)c1` [Compd. No. 59 (Table I)] is 11-fold lower in Ki: 27.3 nM for the first, 2.48 nM for the second. The second binds more tightly here.

Going from `CCc1ccc(Cl)c(NC(=N)Nc2cc(C)ccc2Cl)c1` [Compd. No. 29 (Table I)] to `CCc1ccc(Cl)c(NC(=N)Nc2cccc3ccccc23)c1` [Compd. No. 44 (Table I), N-(1-Naphthyl)-N'-(2-chloro-5-ethylphenyl)guanidine hydrochloride], the Ki falls from 42.1 nM to 15.8 nM (2.7-fold). The second binds more tightly here.

`N=C(Nc1cc(Cl)ccc1Cl)Nc1cccc2ccccc12` [Compd. No. 31 (Table I), N-(1-naphthyl)-N'-(2,5-dichlorophenyl)guanidine] and `CSc1ccc(Cl)c(NC(=N)Nc2cccc3ccccc23)c1` [Compd. No. 46 (Table I), N-(1-Naphthyl)-N'-(2-chloro-5-thiomethylphenyl)guanidine hydrochloride] are within 1.5-fold of each other in Ki: 31.5 nM for the first, 33.2 nM for the second.

`N=C(Nc1cc(Br)ccc1Br)Nc1cccc2ccccc12` [Compd. No. 32 (Table I), N-(1-Naphthyl)-N'-(2,5-dibromophenyl)guanidine hydrochloride] and `N=C(Nc1cc(C(F)(F)F)ccc1Br)Nc1cccc2ccccc12` [Compd. No. 41 (Table I), N-(1-Naphthyl)-N'-(2-bromo-5-trifluoromethylphenyl)guanidine hydrochloride] are within 1.5-fold of each other in Ki: 37.3 nM for the first, 39.3 nM for the second.

`Cc1ccc(C)c(NC(=N)Nc2cccc3ccccc23)c1` [Compd. No. 33 (Table I), N-(1-Naphthyl)-N'-(2,5-dimethylphenyl)guanidine hydrochloride] and `Cc1ccc(C)c(N(C)C(=N)Nc2cccc3ccccc23)c1` [Compd. No. 54 (Table I), N-(1-Naphthyl)-N'-(2,5-dimethylphenyl)-N'-methylguanidine hydrochloride] are within 1.5-fold of each other in Ki: 60.9 nM for the first, 60.5 nM for the second.

Going from `Cc1cccc(NC(=N)Nc2cccc3ccccc23)c1` [Compd. No. 38 (Table I)] to `CCc1cccc(NC(=N)Nc2cccc3ccccc23)c1` [Compd. No. 45 (Table I)], the Ki falls from 148 nM to 30 nM (4.9-fold).

`N=C(Nc1cc(C(F)(F)F)ccc1F)Nc1cccc2ccccc12` [Compd. No. 39 (Table I), N-(1-Naphthyl)-N'-(2-fluoro-5-trifluoromethylphenyl)guanidine hydrochloride] and `N=C(Nc1cc(C(F)(F)F)ccc1Cl)Nc1cccc2ccccc12` [Compd. No. 40 (Table I), N-(1-Naphthyl)-N'-(2-chloro-5-trifluoromethylphenyl)guanidine hydrochloride] are within 1.5-fold of each other in Ki: 29.5 nM for the first, 29.6 nM for the second.

`CSc1ccc(C(F)(F)F)cc1NC(=N)Nc1cccc2ccccc12` [Compd. No. 42 (Table I), N-(1-Naphthyl)-N'-(2-thiomethyl-5-trifluoromethylphenyl)guanidine hydrochloride] and `CSc1cccc(NC(=N)Nc2cccc3ccccc23)c1` [Compd. No. 47 (Table I)] are within 1.5-fold of each other in Ki: 131 nM for the first, 95.3 nM for the second.

`Cc1ccc(Cl)c(NC(=N)Nc2cccc3cccnc23)c1` [Compd. No. 48 (Table I), N-(8-Quinolinyl)-N'-(2-chloro-5-methylphenyl)guanidine hydrochloride] and `Cc1ccc(Cl)c(N(C)C(=N)Nc2cccc3ccccc23)c1` [Compd. No. 55 (Table I), N-(1-Naphthyl)-N'-(2-chloro-5-methylphenyl)-N'-methylguanidine hydrochloride] are within 1.5-fold of each other in Ki: 24.4 nM for the first, 31.6 nM for the second.

Compared with `CN(C(=N)Nc1cccc2ccccc12)c1cc(Cl)ccc1Cl` [Compd. No. 50 (Table I), N-(1-Naphthyl)-N'(2,5-dichlorophenyl)-N'-methylguanidine hydrochloride], `CCc1ccc(Cl)c(N(C)C(=N)Nc2cccc3ccccc23)c1` [Compd. No. 57 (Table I), N-(1-Naphthyl)-N'-(2-chloro-5-ethylphenyl)-N'-methylguanidine hydrochloride] is 1.9-fold lower in Ki: 47.6 nM for the first, 25.2 nM for the second.

First: CN(C(=N)Nc1cccc2ccccc12)c1cccc(Cl)c1 [Compd. No. 52 (Table I)]
Second: CN(C(=N)Nc1cccc2ccccc12)c1cccc(Br)c1 [Compd. No. 53 (Table I)]
The Ki of the first is 2-fold higher: 82.3 nM for the first, 41.6 nM for the second. The second binds more tightly here.

Going from `CCc1cccc(N(C)C(=N)Nc2cccc3ccccc23)c1` [Compd. No. 58 (Table I)] to `CCc1ccc(Cl)c(NC(=N)N(C)c2cccc(SC)c2)c1` [Compd. No. 61 (Table I), N-(3-Methylthiophenyl)-N-methyl-N'-(2-chloro-5-ethylphenyl)guanidine hydrochloride], the Ki falls from 28.8 nM to 9.69 nM (3-fold). The second binds more tightly here.

`CSc1cccc(N(C)C(=N)Nc2cc(SC)ccc2Cl)c1` [Compd. No. 60 (Table I), N-(3-Methylthiophenyl)-N-methyl-N'-(2-chloro-5-methylthiophenyl)guanidine hydrochloride] and `CSc1cccc(N(C)C(=N)Nc2cc(SC)ccc2Br)c1` [Compd. No. 63 (Table I), N-(3-Methylthiophenyl)-N-methyl-N'-(2-bromo-5-methylthiophenyl)guanidine] are within 1.5-fold of each other in Ki: 1.84 nM for the first, 1.65 nM for the second.

`CSc1cccc(N(C)C(=N)Nc2cc(Cl)ccc2Cl)c1` [Compd. No. 62 (Table I), N-(3-Methylthiophenyl)-N-methyl-N'-(2,5-dichlorophenyl)guanidine hydrochloride] was tested, and the Ki was 45.6 nM.
